# Data reported in the supplement of paper PMC11417369.
# The list shows a part of the results.
# System: PfHDP1 homeodomain (GST-tagged)
# Assay: gcPBM binding intensity (ln(normalized median fluorescence intensity)); higher = stronger DNA binding
# Outline: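 An Agilent 4 × 180k array carrying primer-extended double-stranded 36-bp intergenic genomic probes and negative controls received GST-tagged P. falciparum DNA-binding domains expressed in E. coli, about 25 μg on average, for 1 h. The binding buffer contained 1× PBS, 1% milk, 0.2 mg/ml BSA, 0.5% salmon testes DNA and 0.03% Triton X-100. Binding intensity is the top Masliner-normalised natural-log median intensity across replicate spots of either probe orientation, read after Alexa488 anti-GST antibody staining and a 488 nm scan.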
row,Sequence,gcPBM binding intensity (ln)
1,ATATATATATATATTGCACACATATAAATATATATA [CACACA_site8167],10.9
2,TTTTTGTTTTTTTTGTGTACTTATCAAATATATATA [XGTACX_site7273],6.86
3,GAAAAATTTAATTATTGTACGTTTCATCTATATTTA [XGTACX_site414],6.19
4,TTTTTTTTTTAGAGTACACACTTTTTTACATTTATG [CACACA_site5990],6.42
5,ATTACAAATATAATATGTACTTAAATATAATTAAAA [XGTACX_site7038],6.22
6,TCTTGATCTTATATATATCTACAATATTTTATACAT [TGCATGCA_negctrl_site569],6.88
7,ATTACTAAAACAAAATGTACATATGATTTAAGAAAA [XGTACX_site5992],6.31
8,AAAAAAAAAAAGAAGGGTACATATTATATATAATAT [XGTACX_site6204],6.42
9,TATATATAAACATAATGTACATATAATAAGTAATAT [XGTACX_site497],6.81
10,AGCCCAAAAAAGTAGACATGCAAAAACTTTACAACT [TGCATGCA_site550],6.5
11,TAGAGGAATATAATATGTACATAATATAATGTATAT [XGTACX_site2838],6.6
12,AGTGAAATTTTAGTCACACAGTTTTATCTTTAAGAA [CACACA_site5202],5.86
13,TTATGTCTAATGAAATGTACATGAATAAATTAAAGT [XGTACX_site8138],6.96
14,AAAAAAATAAATAAATGTACACATATATATATATAT [XGTACX_site4350],9.25
15,ATCATTTATATTTTATGTACATATATAATTATATTT [XGTACX_site2129],6.91
16,AATTATATAAGCCACGCATGTGTGCATAAAAATACA [TGCATGCA_site114],10.9
17,AATGAGAATTTTATTACACACTTTAATATATTTTCA [CACACA_site784],6.33
18,AATTTTCAATAGTATACACACAATTCTATAAATATA [CACACA_site6650],6.38
19,CACGTGAAAATACAAGCATGCAAGCTTTTTTTTTCT [TGCATGCA_site642],6.06
20,AATTTTTTTATAGCACGTACAAAAATACAAAATACA [XGTACX_site1569],6.59
21,CTTAAAAAAATATATTGTACATATATATATACAACT [XGTACX_site1281],6.49
22,TATATTCCCATATAACGTACATATGAGACACCAACT [XGTACX_site8099],6.61

row,Sequence,gcPBM binding intensity (ln)
1,GATCATTCTAAATATAAACACACATAAATATATACA [CACACA_site9108],6.67
2,ATAATATAATAATATTGTACATGGTCAAATATGAAA [XGTACX_site8390],6.28
3,GTTTATATATTATAAAGTACATATGAATTTAATAAT [XGTACX_site3601],6.2
4,ATTTCAAAATATAGCTGTACAAAAAATGTAGATATA [XGTACX_site5843],6.29
5,AAAAAATAAATAAACATAAATAAATAAATAAATATA [XGTACX_negctrl_site340],6.27
6,AATTTTGTCCTATGTTGTACTATTTTGCTCTATTTT [XGTACX_site7139],7.39
7,TAACTTCAAAAATCTTGTACATAAATATATAAAACA [XGTACX_site8574],6.29
8,TTAAAATGATTGTTACTTTTTTTTCCGTTTTCTTAA [CACACA_negctrl_site1195],6.03
9,TTTCTCTCTTATAAAATACACACGAACAATCATATT [CACACA_site509],6.99
10,AAAAATGGTGTTAACACACACATATATATATATATA [CACACA_site571],9.38
11,ATAAATAGTATTATATGTACACATAATATTTATAAA [XGTACX_site4751],6.68
12,ATAGTTACACGCCAAAAAAAAAAAAAAAAAAAAAAA [CACACA_negctrl_site1133],6.18
13,CACATTTTTTAAATATTTTTCTACTCCATAATGTTT [CACACA_negctrl_site557],7.08
14,TATAATTATGATGATAGTACGTATGAGTTCAAAACA [XGTACX_site4211],6.46
15,TTAATATAGGGAAAAAAAAGAAAATCGAAAATGTGT [CACACA_negctrl_site834],6.75
16,AGACAATATTAATAAGGTACACATATATATTAAAAA [XGTACX_site6709],6.35
17,TAATTAAATAAAAAAAAATATATATATATATATATA [XGTACX_negctrl_site616],9.32
18,TTTTTTAAAAATAACTGTACAGAGGCTGTTAGGATA [XGTACX_site2521],6.98
19,TTTATATGTTTTAAGTGTACACATATAATGTATTTT [XGTACX_site3069],6.94
20,TAAGGGAGAGATTTGTATCATAAGCAACTTTCAAAA [CACACA_negctrl_site1436],6.54
21,TTATAATTAAATTTCACACAGTTCATAACATAATTA [CACACA_site5501],6.36
22,ACTTTCAACATGAAGTTGCACTTTTTTTTTTTTCTT,6.68

row,Sequence,gcPBM binding intensity (ln)
1,AGCCCTTTTTTTTTTTAGAATATTGCATAATTATAT [XGTACX_negctrl_site546],7.03
2,GTATTGTATGGATGGGGTACTATATATATATATTTT [XGTACX_site1694],7.29
3,TATATAAATATATCCACACACATACCTATATTAATA [CACACA_site6184],6.51
4,TTTGATAATAAGATATAATACTTAAATATATATATA [GTGCAC_negctrl_site339],8.19
5,TATTTTACGCGGTTTATAATGACATGTTCTATATTT [CACACA_negctrl_site1184],6.65
6,AAATATATATTCAAAAGTACACAATTTGTTAATAAT [XGTACX_site8917],6.81
7,ATTATTAAAAATATGGGTACATATTATTGTTATATA [XGTACX_site1958],6.05
8,CACACTTGCTCCTGTTGTACATAACCATAAGCAACA [XGTACX_site2102],7.52
9,TGAATATAACAAATATGTACTTAAAATTGTTATATT [XGTACX_site5679],6.22
10,TAAAGAAATAAATACATACACACATATATATATATA [CACACA_site3363],9.37
11,AAACTTTACATTACTTGTACATATATTCTATATAAT [XGTACX_site8640],6.39
12,AAAAAAAAAAAAAAATGTACATGACATGACATGACA [XGTACX_site4020],6.43
13,TTATATTTTACAAATGCACACATAATTTTTTTTTTT [CACACA_site8890],9.76
14,TCCATATGCATGTATTGTACTGTAATATATTAAAAA [XGTACX_site472],6.7
15,AGCAGTCGACAGGACAGTACACAGTAGCCAGGAAAT [XGTACX_site4929],6.22
16,AAAAAAAAAAAAGAAACACACACATATATATATATA [CACACA_site8525],9.03
17,TAAATATATAAATACACACACACCAAAGCAATAGAT [CACACA_site5605],7.31
18,GCTTATATTAATAAGGTGCTTTTTATTTCGTGTGTA [GTGCAC_site9649],6.25
19,AATATGTACAGACATACACACATATTTATATTTATA [CACACA_site6694],6.41
20,TTATATAAAGAATGTACACACAGAAATGCACAGACA [CACACA_site5288],9.72
21,TCATAGTATAAACACACACACACACCCATATATATA [CACACA_site8512],7.06
22,AAAAATTCAATAGGACGTACTAAAACATTCATTAAT [XGTACX_site1712],6.54

row,Sequence,gcPBM binding intensity (ln)
1,TTATAAATAATGAGAAACATTAAATTTAATCATAAA [CACACA_negctrl_site523],6.4
2,TTTAGTGTTATAAAAAGTACATAATAATTCCTTTTC [XGTACX_site3208],6.04
3,TACTATATATATATATATATATATATATATATTTAT [GTGCAC_negctrl_site593],7.38
4,TAGTATTAAATATATACACACATATATACCTATAGA [CACACA_site5219],6.5
5,AAAATGTAATATTGGGTGCACAATAAGTTTGATGTC,10.1
6,TGAAAAGATAAAAAAAGTACACACACACATATATAT [XGTACX_site6504],7.3
7,TAAAAAAATTATATTTGTACATATTAATATAGCCTT [XGTACX_site4833],6.2
8,TATTGAATAAAATGCACACGCATGCGTTATTTATTA [CACACA_site3479],9.41
9,AAACGTATTCTATAAAGTACATTATTATAGTAGACC [XGTACX_site8068],6.17
10,AGAATGGTTTATAAAGGTACGTAATTTTTAATTTTA [XGTACX_site383],6.02
11,AAAATATTTATTTTTTGTACACATAAAAACGCACTT [XGTACX_site4132],7.45
12,CATATTTTGTGAAAAAGTACATATATATATATATAT [XGTACX_site6295],9.38
13,ATATGTCCATATAGTAAATGTTACATTTTAAAGCGC [XGTACX_negctrl_site168],7
14,ATTCTTAAAAAATAAGTGCAAAATAATTAAATAAAT,9.38
15,TTATATTTTAAGAAATGTACATGATATAATTATCAA [XGTACX_site8693],6.39
16,TGGATGAGGACATACACACACACATAAGTTGATACA [CACACA_site3423],6.58
17,TTTTTTTTAATTTTCTGTACAAATTTATATATACTA [XGTACX_site4251],6.42
18,AATGAAAAGGAACATACACACCCCATATAAATATAT [CACACA_site7588],7.27
19,TATTTCTTATGAAGGACATGCAATATTATTTATCTC [TGCATGCA_site683],6.35
20,ATAATATATAATATAGTGCATTATTTATTAATTAAT [GTGCAC_site9852],9.34
21,AGGAAATTTTTTTTTTTTTTTTTTTTTTTTTTTTAC [TGCATGCA_negctrl_site170],5.7
22,CAAAATATTATGAATTGTACATATTTTAAAACGTTT [XGTACX_site1614],6.38
